From PubChem BioAssay AID624296 (National Center for Advancing Translational Sciences (NCATS), 2012)
Among all 350,000 compounds or so, about 9,900 (2.8%) were called active. This list was built around the results that the source calls inconclusive (neither active nor inactive); the mix of calls is not that of the screen. Calls come from the whole dose curve; as a rule, active = well fitted activation curve with a large enough effect; inconclusive = small, poorly fitted or top-dose-only effect; inactive = no such curve, though single readings can be large or run the other way. No potency is given beside an inconclusive call; the fits are too rough.
Potency is the fitted concentration of half-maximal effect; tags give direction and shape of the fitted curve.

Assay: A quantitative high throughput screen for small molecules that induce DNA re-replication in MCF 10a normal breast cells. Note: nearly all actives have a fitted effect of over 50% in size.
Settings: MCF 10A DNA re-replication, Hoechst nuclear intensity, 48 h; series mostly up to 46.1 µM
In the case of `O=C(N/N=C/c1cccnc1)c1cc(-c2ccc(Cl)cc2)nc2ccccc12`, the Potency is reported as inconclusive [activator, partial curve, poor fit]. For `NS(=O)(=O)c1ccc(CNC(=O)c2cc(=O)[nH]c3ccccc23)cc1`, the Potency was “inactive”. With `NC(=O)c1ccsc1NC(=O)c1ccc(S(=O)(=O)N2CCCc3ccccc32)cc1` the Potency was inconclusive [activator, single point]. For `O=C(NCCCN1CCOCC1)c1ccc2c(c1)N(Cc1cccc(Cl)c1)C(=O)c1ccccc1S2=O` (configuration not stated), the Potency was inconclusive [activator, partial curve, poor fit]. In the case of `Cc1noc2ncnc(Sc3c(Cl)cccc3Cl)c12`, the Potency is reported as active: 4.47 µM. In the case of `O=C(Nc1cnccc1C(F)(F)F)NC1CCCCC1`, the Potency is reported as inconclusive [activator, single point]. In the case of `CCN(C(=O)CN1C(=O)NC(c2ccccc2)(c2ccc(C)c(C)c2)C1=O)C1CCCCC1` (configuration not stated), the Potency is reported as inconclusive [activator, single point]. In the case of `CCOc1ccc(Nc2ccc(S(=O)(=O)N3CCN(C)CC3)cc2[N+](=O)[O-])cc1OCC`, the Potency is reported as “inactive”. In the case of `CCCCNS(=O)(=O)c1ccc(NS(=O)(=O)c2c(C)cc(C)cc2C)cc1`, the Potency is reported as active: 4.61 µM. In the case of `Cc1ccc(NS(=O)(=O)c2ccc(C(=O)NCC(c3ccco3)N3CCCCC3)cc2)cc1` (configuration not stated), the Potency is reported as inconclusive [activator, single point]. In the case of `O=c1c2[nH]c3ccc(F)cc3c2ncn1CCC1=CCCCC1`, the Potency is reported as “inactive”. With `Cc1ccc2c(Cl)c(C)c(N3CCCC3)nc2n1` the Potency was inconclusive [activator, partial curve, poor fit]. In the case of `CC1(C)CC(c2nc(-c3ccccc3)cs2)CCS1` (configuration not stated), the Potency is reported as inconclusive [activator, single point]. With `O=C(Cc1ccc(Cl)cc1)NC(=S)Nc1ccccc1N1CCOCC1` the Potency was inconclusive [activator, partial curve]. With `c1ccc(CSc2nc3ncncc3[nH]2)cc1` the Potency was “inactive”. In the case of `Cc1nc2c3ccccc3n(Cc3ccccc3F)c2s1`, the Potency is reported as active: 14.6 µM. With `COc1ccc(COC(=O)c2ccc(Br)c(S(=O)(=O)N3CCOCC3)c2)cc1F` the Potency was “inactive”. In the case of `CCOC(=O)N1CCN(c2nc3ccc(C(=O)c4ccccc4)cc3n3cnnc23)CC1`, the Potency is reported as inconclusive [activator, single point]. In the case of `CCOCCc1nnc(N)s1`, the Potency is reported as active: 8.2 µM. In the case of `COc1ccc(OC)c(/C=C/C(=O)Nc2cccc(S(=O)(=O)N3CCCC3)c2)c1`, the Potency is reported as active: 23.1 µM. In the case of `O=C(N/N=C/c1ccco1)c1ccncc1`, the Potency is reported as “inactive”. For `COc1ccccc1NC(c1cccnc1)c1ccc2cccnc2c1O` (configuration not stated), the Potency was inconclusive [activator, single point]. For `CN(C)C(=O)C12CCC(C)(c3nc4ccccc4nc31)C2(C)C` (configuration not stated), the Potency was inconclusive [activator, single point]. For `CN1CCN(C(=O)c2cc(Cl)cc(Cl)c2)CC1`, the Potency was inconclusive [activator, partial curve, poor fit]. In the case of `CN(CCOc1ccccc1)C(=O)CCc1nc2sc3c(c2c(=O)[nH]1)CCCC3`, the Potency is reported as inconclusive [activator, single point]. With `Cc1nc(SCC(=O)Nc2ccc(S(=O)(=O)N3CCOCC3)cc2)c2c(C)c(C)sc2n1` the Potency was inconclusive [activator, single point]. For `CC(C)CCn1c(O)c(N=Nc2ccccn2)c2ccccc21`, the Potency was inconclusive [activator, single point]. In the case of `COc1ccc2ccccc2c1/C=N\NC(=O)c1cccnc1`, the Potency is reported as active: 18.4 µM. With `Cc1cc(C)n(-c2ccc(C(=O)NC3CCCCC3)cc2)n1` the Potency was “inactive”. For `CC(C)NC(=O)CSc1nc2[nH]ncc2c(=O)[nH]1`, the Potency was “inactive”. With `O=S(=O)(Oc1ccccc1-c1ccccc1)c1ccccc1` the Potency was inconclusive [activator, single point]. With `CCOC(=O)c1cc2c(ccc3ccccc32)oc1=O` the Potency was “inactive”. For `C=CCSc1nnc(N2C(=O)C(O)=C(C(=O)c3ccco3)C2c2ccc(F)cc2)s1` (configuration not stated), the Potency was inconclusive [activator, single point]. For `Cn1nnnc1SCC(=O)Nc1ccc(S(=O)(=O)N2CCOCC2)cc1`, the Potency was “inactive”. With `COc1cc(-c2nccc3cc4c(cc23)OCO4)cc(OC)c1OC` the Potency was active: 14.6 µM. In the case of `CCOC(=O)C(C(=O)OCC)c1cc(Br)c2noc3c2c1C(=O)c1ccccc1-3`, the Potency is reported as inconclusive [activator, single point]. For `COc1cc(NC(=O)c2ccc(Br)cc2)c(OC)cc1NC(=O)c1ccccc1`, the Potency was inconclusive [activator, single point]. With `[O-]/C(=C(\C(=S)Nc1cccc2ccccc12)[n+]1ccccc1)c1ccc(Cl)s1` the Potency was inconclusive [activator, single point]. With `O=C(CCn1c(=O)[nH]c2ccccc2c1=O)N1CCN(c2cccc(C(F)(F)F)c2)CC1` the Potency was inconclusive [activator, partial curve, poor fit]. In the case of `O=C(Cc1cccc(NC(=O)C2CCCN(C(=O)C3CC3)C2)c1)Nc1cccc(C(=O)N2CCCC2)c1` (configuration not stated), the Potency is reported as inconclusive [activator, single point]. With `Cc1ccc(SCCCCN2CCOCC2)cc1` the Potency was inconclusive [activator, partial curve, poor fit]. In the case of `COc1ccc(/C=C2/SC(=S)N(CCCC(=O)Nc3ccc(O)cc3)C2=O)cc1`, the Potency is reported as inconclusive [activator, single point]. In the case of `Clc1ccccc1CSc1cnnc2ccccc12`, the Potency is reported as inconclusive [activator, single point]. In the case of `CCCn1ncc(CN2CCC(Cc3cccc(F)c3)(C(=O)OCC)CC2)c1C`, the Potency is reported as inconclusive [activator, full curve, poor fit]. For `CN1CCN(C(=O)C2=C[C@H](c3ccc4c(c3)OCO4)C[C@H](OCc3ccc(CO)cc3)O2)CC1`, the Potency was active: 8.2 µM. With `CCOC(=O)c1ccccc1NC(=O)c1c(O)c2ccccc2n(CC)c1=O` the Potency was inconclusive [activator, single point]. In the case of `COc1cccc(NC(=O)Nc2nc(-c3ccc(OC)c(OC)c3)cs2)c1`, the Potency is reported as active: 20.6 µM. With `CC(=O)c1ccc(N2C(=O)[C@@H]3[C@H](C2=O)[C@H]2c4ccccc4C=NN2[C@@H]3C(C)=O)cc1` the Potency was “inactive”. With `O=C(COC(=O)c1ccc(F)cc1F)NC1CC1` the Potency was inconclusive [activator, single point]. In the case of `CC(C)C[C@H](N)c1nnc(S(=O)(=O)Cc2cccc(F)c2)o1`, the Potency is reported as inconclusive [activator, full curve, poor fit]. For `CCNc1nc(NC(C)CC)nc(Oc2ccc(OCC)nn2)n1` (configuration not stated), the Potency was inconclusive [activator, single point]. For `COc1ccc(CN2CCN(C(=O)c3ccc(S(=O)(=O)N4CCCCCC4)cc3)CC2)cc1`, the Potency was inconclusive [activator, single point]. For `COc1ccc(C2CC(c3ccccc3)=NN2C(=O)COC(=O)c2cnc(Cl)c(Cl)c2)cc1` (configuration not stated), the Potency was “inactive”. With `COc1ccc(C(C(=O)NC(C)(C)C)N(Cc2cccs2)C(=O)CCC(=O)Nc2cc(C)on2)cc1` (configuration not stated) the Potency was inconclusive [activator, partial curve]. For `Cc1cc(NC(=O)CSc2nc(-c3cccs3)nc3ccccc23)no1`, the Potency was active: 14.6 µM. In the case of `Fc1ccccc1Nc1nc2c(s1)CCc1ccccc1-2`, the Potency is reported as inconclusive [activator, single point]. In the case of `C=CCN1C(=O)C(CC(=O)O)SC1=Nc1ccc(C)cc1` (configuration not stated), the Potency is reported as active: 2.59 µM. For `O=C(NC(=S)Nc1cccc(Cl)c1N1CCCCC1)c1cccs1`, the Potency was active: 3.26 µM. With `Cc1cccn2c(=O)c3cc(S(=O)(=O)c4ccccc4)c(=N)n(CC4CCCO4)c3nc12` (configuration not stated) the Potency was inconclusive [activator, single point]. For `CCc1ccc(C(=O)C(C)OC(=O)Cn2[nH]c(=O)c3ccccc3c2=O)cc1` (configuration not stated), the Potency was “inactive”. In the case of `Cc1c(C(=O)Nc2nc3ccccc3[nH]2)oc2c(Cl)cccc12`, the Potency is reported as inconclusive [activator, single point]. With `O=C(CSC(=S)N1CCCC1)c1ccccc1` the Potency was “inactive”. In the case of `O=C1N[C@@H](Cc2ccccc2)COC(=O)[C@@H](Cc2ccc(F)cc2)C/C=C\C[C@@H]1CC(=O)N(CCO)Cc1ccccc1`, the Potency is reported as active: 23.1 µM. For `COc1cc(COCC(O)CN2CCN(Cc3ccc4c(c3)OCO4)CC2)cc(OC)c1OC` (configuration not stated), the Potency was “inactive”. In the case of `NC(=O)c1nsc(C(=O)N(c2cccc(F)c2)C(C(=O)NC2CCCC2)c2ccco2)c1N` (configuration not stated), the Potency is reported as “inactive”. With `O=C(O)c1ccc(N2C(=O)c3cccc4c(C(=O)O)ccc(c34)C2=O)cc1` the Potency was inconclusive [activator, full curve, poor fit]. For `COc1ccccc1Oc1nnnn1-c1ccc(C(N)=O)cc1`, the Potency was “inactive”. For `Cc1ccccc1Cc1c(C)nc2c(C(=O)N3CCN(Cc4ccc5c(c4)OCO5)CC3)cnn2c1C`, the Potency was “inactive”. With `CC(C)OC(=O)c1c(NC(=O)c2ccco2)sc2c1CCCC2` the Potency was inconclusive [activator, partial curve]. With `COc1cccc(CNC(=O)c2ccc3c(c2)N(C)CCS3)c1OC` the Potency was “inactive”. With `C/C(=N\NC(=O)C1(C)CC1(Br)Br)c1ccc([N+](=O)[O-])cc1` (configuration not stated) the Potency was “inactive”. In the case of `CCN1CCN(S(=O)(=O)c2ccc(Cl)c(C(=O)N(C)CCOc3ccc(Cl)cc3)c2)CC1`, the Potency is reported as inconclusive [activator, partial curve, poor fit].
